Measurements taken from the RNAGym collection of RNA variant scans (doi:10.7554/elife.90254).
The source gives no read counts; variants with many changes may rest on few reads.

B1: LINE1-mini (parent)
chain: GGCAGAGCUCAACACAGCGUGGCAAAGUGGCUGUGGCUAGACUGCC

Variants of: B1
Test: self-cleavage, relative activity (ratio to wild type); higher = more cleavage; in vitro, sequencing; the parent is a self-cleaving ribozyme

Variant | self-cleavage
G22U G30C U43C | 0.24
C23U A25C U32G C46G | 0.04
C23U G30C G33U C45G | 0.1
G21C U28A G35C | 0.12
C23G A26U C37G U38G | 0.02
C23U G29C G35A A41U | 0.17
G21U G22U C46G | 0.44
G22C A26U G27A U38G | 0.03
G21U C37A A41G G44A | 0.01
C23A G44C C46G | 0.04
G21U G33C U34C | 0.02
G22U A25U U32C U34G A41U C46G | 0
A24C A26C G29U U38A A39U C42G C46G | 0.02
G21U C37G C45U | 0.04
C23A U32A U38A | 0.15
C23U G29A G44C | 0.39
G21C G27A G29C | 0.59
G22A A25G G40U | 0.28
G21U U28A C31U | 0.46
C23U G36A G44C | 0.08
G21C G27A G33U G44A | 0.08

Variant | self-cleavage
C23U A39G G44U | 0
C23A A25G G44U | 0.08
C23G U32A U34C | 0.04
C23U C42U C46U | 0.18
G21C G27A C37U | 0.06
G21U C23G U43A | 0.03
C23G A24G A41G | 0.08
G22A C31G U32A G36C A41G | 0.07
G22U C45G C46A | 0.27
G21U C31G G36A U38G | 0.01
G21C U34A U38A | 0.03
C23A G44A C45A | 0.02
C23U A24U G30C C31U G33U | 0.01
G22C C37U G40A U43G | 0.04
G21U G30U U38A | 1.02
G22C G35U C46U | 0.09
G22U U34G G36A | 0.03
G22U C37U G40U C45A | 0.02
C23U G33A G35A | 0.02
C23A C37G U38A | 0.01
G22C U38C C46G | 1.5

Variant | self-cleavage
G21C U28A A39C C45U | 0
C23U A24G U38G C45G | 0
G22U C23G A26C | 0.71
G21U G22A U28C G35C A41U | 0.15
G22U G29U C42A | 0.42
G22A A39U C45U | 1.87
C23U G27A G40C | 0.09
C23G A26C U32C G40U C42A | 0.01
C23A U34G G44A | 0.15
C23G G27U C45U | 0.78
G22A C23A G36A | 0.27
C23G A26U G29U U32G | 0.53
C23U U43A C46U | 0.11
G22U A24U G27A C45A | 2.22
G21U A26U G29U G30A | 0.9
G21U G29A U43A | 0.09
C23U C31A U32C C42A C45G | 0.02
G21U G35U C45U | 0.21
C23U A26U U38A | 0.31
C23U A26G C31A | 0.14
G22U U34G G35U | 0.04

Variant | self-cleavage
G22U C31A C46A | 0.1
G21U G33U G44A | 0.03
C23U G33C G44C | 0.05
G22C A24C G35C U43G | 0.02
G21C U38G C42A | 0.02
G22U G27A C31A U43G C45U | 0.8
C23G A26C A39C | 0.05
A24C A25U U32C G35A | 0.03
G21C C31U G40U | 0.02
C23G U32G G36A A41G | 0.13
G22C C23U A25U A41G C45U | 0.72
G21C G22A G30U | 0.7
G22C G33A G36A G40A | 0.05
C23A G36A A41G C42A | 0.03
G22A G35U C37G | 0.05
G21U G30U U43C C46U | 0.11
C23U A24C U28G G29U G33C | 0.03
G22A C23A U28G G30C C37G A41G | 0
C23G C31G A41G | 0.03
G22A G33C G36C | 0.05
G22U G27A G44C | 0.47
